Test results as given in the RNAGym collection of RNA variant scans (doi:10.7554/elife.90254).
The source gives no read counts; variants with many changes may rest on few reads.

B1: LINE1-full (parent)
chain: UACGUAGGUGGUUUUCCCCUGAUAGUGCUAAGGGGGCCUGGAAGUUUGGACUGGGCAGAGCUCAACACAGCGUGGCAAAGUGGCUGUGGCUAGACUGCCUCUCUGGAUUCCUCGUCACUCAGCAGGGCAUCUCUGAGAGAAAUGCC

Variants of: B1
Test: self-cleavage, relative activity (ratio to wild type); higher = more cleavage; in vitro, sequencing; the parent is a self-cleaving ribozyme

Row | Variant | self-cleavage
1 | UACGUAGGUGGUUUUCCCCUGAUAGUGCUAAGGGGGCCUGGAAGUUUGGACUGGGCAGAGCUCAGCACAGCGUGGCAAAGUGGCUGUGGCUAGACUGCCUCUCUGGAUUCCUCGACACCCAGCAGGGCAUCUCCGAGAGAAAUGCC [A65G U115A U119C U134C] | 0
2 | UACGUAGGUGGUUUUCCCCUGAUAGUGCUAAGGGGGCCUGGAAGUUUGGACUGGGCAGAGCUCGACACAGCGUGGCAAAGUGGCCGAGGCUAGACUGCCUCUCUGGGUUCCUCGUCACUCAGCAGGGCAUCUCUGAGAGAAAUGCC [A64G U85C U87A A107G] | 0.3
3 | UACGUAGGUGGUUUUCCCCUGAUAGUGCUAAGGGGGCCUGGAAGUUUGGACUGGGCAGAGCUCAACACAGCGUGGCAAUGUGGCUGUGGCUAGACUGCCUCUCUGGAUUCCUCGUCACUCAGCAGGGCACCUCAGAGAGAAAUGCC [A79U U130C U134A] | 2.14
4 | UACGUAGGUGGUUUUCCCCUGAUAGUGCUAAGGGGGCCUGGAAGUUUGGACUGGGCAAAGCUCAACACAGCGUGGCGAAGUGGCUGUGGCUAGACUGCCUCUCUGGGUUCCUCGUCACCCAGCAGGGCAUCUCAGAGAGAAAUGCC [G58A A77G A107G U119C U134A] | 0.13
5 | UACGUAGGUGGUUUUCCCCUGAUAGUGCUAAGGGGGCCUGGAAGUUUGGACUGGGCAGAGCUCAACACAGCGUGGCGAAGUGGCUGUGGCUAGACAGCCUCUCUGGAUUCCUCGUCACUCAGCAGGGCAUCUCUGAGAGAAGUGCC [A77G U96A A142G] | 0.02
6 | UACGUAGGUGGUUUUCCCCUGAUAGUGCUAAGGGGGCCUGGAAGUUUGGACGGGGCAGAGCUCAACACAGCGUGGCAAAGUGGCUGUGGCUUGACUGCCUCUCUGGAUUCCUCGCCACUCAGCAGGGCUUCUCUGAGAGAAAUGCC [U52G A92U U115C A129U] | 0
7 | UACGUAGGUGGUUUUCCCCUGAUAGUGCUAAGGGGGCCUGGAAGUUUGGACUGGGCAGAGCUCAACCCAGCGUGGCAGAGUGGCUGUGGCUAGACUGCCUCUCAGGAUUCCUCGUCACUCAGCAGGGCAUCUCUGAGAGAAAUGCC [A67C A78G U104A] | 0
8 | UACGUAGGUGGUUCUCCCCUGAUAGUGCUAAGGGGGCCUGGAAGGUUGGACUGGGCAGAGCUCGACACAGCGUGGCAAAGUGGCUGUGGCUAGACUGCCUCUCUGGAUUCCUCGUCACUCAGCAGGGCAUCUCUGAGAGAGAUGCC [U14C U45G A64G A141G] | 0
9 | UACGUAGGUGGUUUUCCCCUGACAGUGCUAAGGGGGCCUGGAAGUUUGGACUGGGCAGAGCUCAACACAGCGUGGCAAAGUGGCUGUGGCUAGACUGCCUCUCUGGAUUCCUCGUCACUCAGCGGGGCAUCUCUGAGAGAUAUGCC [U23C A124G A141U] | 0.56
10 | UACGUAGGUGGUUUCCCCCUGAUAGUGCUAAGGGGGCCUGGAAGUUUGGACUGGGCAGAGCUCAACACAGCGUGGCAAAGUGGCUGUGGCUAGACGGCCUCUCUGGAUUCCUCGUCACUCAGCAGAGCAUCUCUGAGAGAAAUGCC [U15C U96G G126A] | 0.12
11 | UACGUUGGUGGUUUUCCCCUGAUAGUGCUAAGGGGGCCUGGAAGUUUGGACUGGGCAGAGCUCAACGCAGCGUGGCAAAGUGGCUGUGGCUAGACUGCCUCUCUGGAUUCCUCGUCACUCAGCAUGGCAUCUCUGAGAGAAAAGCC [A6U A67G G125U U143A] | 0.31
12 | UACGUAGGUGGUUUUCCCCUGAUAGUGCUAAGAGGGCCUGGAAGUUUGGACUGGGCAGAGCUCAGCACAGCGUGGCAAAGUGGCUGUGGCUAGACUGCCUCUCUGGAUUCCUCGUCACCCAGCAGGGCAUCUCUGAGAGAAAUGCC [G33A A65G U119C] | 0.03
13 | UACGUAGGUGGUUUUCCCCUGAUUGUGCUAAGGGGGCCAGGAAGUUUGGACUGGGCAGAGCUCAACACAGCGUGGCAAAGUGGCUGUGGCUAGACUGCCUCUCUGGAUUCCUCGUCACUCAGCGGGGCAUCUCUGAGAGAAAUGCC [A24U U39A A124G] | 1.73
14 | UACGUAGGUGGUUCUCCCCAGAUAGUGCUAAGGGGGCCUGGAAGUUUGGACUGGGCAGAGCCCAACACAGCGUGGCAAAGUGGCUGUGGCUAGUCUGCCUCUCUGGAUACCUCGUCACUCAGCAGGGCAUCUCUGAGAGAAAUACC [U14C U20A U62C A94U U109A G144A] | 0.15
15 | CACGUAGGUGGUUUCCCCCUGAUAGUGCUAAGGGGGCCUGGAAGUUUGGACUGGGCAGAGCUCAACACAGCGUGGCAAAGUGGCUGUGGCUGGACUGCCUCUCUGGAUUCCUCGUCACUCAGCAGGGCAUCUCUGAGAGAAAUGCC [U1C U15C A92G] | 0.06
16 | UACGUAGGUGGUUUUCCCCUGAUAGUGCUAAGGGGGCCUGGAAGUUAGGACUGGACAGAGCUCAACACAGCGUGGCAAAGUGGCUGUGGCUAGACUGCCUCUCUGGAUUCCUCGUCACUCAGCAAGGCACCUCUGAGAGAAAUGCC [U47A G55A G125A U130C] | 0.11
17 | UACGUAGGUGGUUUUCCCCUGAUAGUGCUAAGGGGGCCUGGAAGUUUGGACUGGGCAGAGCUCAACACAGCGUGGCAAAGUGGCUGUGGCUAGACUGCCUCUCUGGAUUCCUCGUCACUCAGCAGGGCAUCUCCGAGAGAAGCGCC [U134C A142G U143C] | 1.66
18 | UACGUAGGUGGUUCUCCCCUGAUAGUGCUAAGGGGGCCUGGAAGUUUGGACUGGGCAGAGCUCAACACAGCGUGGCGAAGUGGCUGUGGCUAGACUGCCUCUCCGGAUUCCUCGUCACUCAGCAGGGCAUCUCUGAGAGAAAUGCC [U14C A77G U104C] | 1.72
19 | UACGUAGGUGGUUUUCCCCUGAUAGUGCUAAGGGGGCCUGGGAGAUUGGACUGGGCAGAGCUCAACACCGCGUGGCAAAGUGGCUGUGGCUAGACUGCCUCUCUGGAUUUCUCGUCACUCAGCAGGGCAUCUCUGAGAGAAAUGCC [A42G U45A A69C C110U] | 0.06
20 | UACGUAGGUGGUUUCCCCCUGAUAGUGCUAAGGGGGCCUGGAAGUUUGGACUGGGCAGAGCUCAACACAGCGUGGCAAAGCGGCUGUGGCUAGACUGCCUCUCAGGAUUCCUCGUCACUCAGCAGGGCAUCUCUGAGAGAAAUGCC [U15C U81C U104A] | 2.12
